Consider 69 compounds from PubChem BioAssay AID1362 (SRMLSC, 2008).

The structures appear in SMILES notation. Some of the results follow. The main result of the screen is listed elsewhere. These columns were measured beside it and carry no call. The list favours compounds with an active or inconclusive main result.

As a reminder, the inhibition is the change of the read-out against control, counted positive when it falls.

A short description of the assay: growth inhibition of WT strain, primary screen, mitochondrial fusion inhibitor project, WT and mutant strains, chemical genetic (AID 1362). Further: tested in S. cerevisiae. Particulars: mitochondrial fusion phenotypic screen, at 10 µM.
Turning to `Cc1ccc(-c2nnc(N3CCC(C)CC3)c3ccccc23)cc1C`, the inhibition worked out at 73.6%.
The result for `O=C(NCc1ccccc1Cl)c1cnccn1` reads 2.33%; that for `O=C(Nc1nc(-c2ccccn2)cs1)c1cc(Cl)ccc1[N+](=O)[O-]`, 55.3%; that for `Cc1nc(N2CCN(Cc3ccc4c(c3)OCO4)CC2)c2cc(-c3ccccc3)sc2n1`, 63.2%.
Take `Fc1ccc(N2CCN(c3nc(CN4CCOCC4)nc4scc(-c5ccccc5)c34)CC2)cc1`: the inhibition stood at 19%.
The result for `Fc1cccc(-c2cc3nc4c(c(NCc5ccco5)n3n2)CCCC4)c1` reads 79.2%.
The result for `CCOc1ccc(-c2nnc(NC(=O)c3ccc(OCC(C)C)c(OC)c3)o2)cc1` reads 29.5%.
As for `Cc1ccc(NC(/C=C/N(C)C)=C/C(=O)C(F)(F)F)c(C)c1`, the inhibition was 67.9%.
The result for `COCCn1c(=O)[nH]c(=O)c2cc(C(=O)c3cc(Cl)ccc3O)cnc21` reads 42.9%.
Consider `COc1ccc(N2CCN(C(=S)NC(=O)c3cccs3)CC2)c([N+](=O)[O-])c1`, for which the inhibition worked out at 52.2%.
The result for `CC1CCN(c2ncnc3c2cnn3Cc2ccc(Cl)cc2)CC1` reads 29.9%; that for `COc1cc(/C=C2\SC(=S)NC2=O)ccc1OS(=O)(=O)c1ccccc1`, 44.6%.
For `CCC(CC)C(=O)c1c[nH]c(C(=O)NCc2ccco2)c1` the value was 17.9%; for `S=C(NCCC1=CCCCC1)NCc1ccco1`, 62.4%; for `CCc1ccc(NC(=S)N(Cc2ccccc2)Cc2ccccn2)cc1`, 44.7%.
As to `CN1CCN(c2ccc(-c3ccnn3C(=O)Nc3cccc(C(F)(F)F)c3)cc2)CC1`, the inhibition was found to be 34.6%.
`C(=N/Nc1nc(-c2ccccc2)cc(-c2ccccc2)n1)/c1cccnc1`: the inhibition stood at 21.4%.
Take `ClC(Cl)(c1nnnn1-c1ccccc1)c1nnnn1-c1ccccc1`: the inhibition turned out to be 85%.
The result for `Cc1ccc2nc(-c3cccc(NS(C)(=O)=O)c3)cc(-c3ccccc3)c2c1` reads 55.1%.
The result for `CCCc1cc(-c2nc(N)ncc2-c2ccc3c(c2)OCCCO3)c(O)cc1OC` reads 13.2%.
The result for `CCOC(=O)COc1ccc2ccccc2c1/C=C/[N+](=O)[O-]` reads 76.9%; that for `CN(Cc1ccccc1)S(=O)(=O)c1ccc(C(=O)Nc2nnc(C3CC3)o2)cc1`, 60.3%; that for `COc1ccccc1N1CCN(C(=O)c2ccc3[nH]c4c(c3c2)CC(C)CC4)CC1` (centres undefined), -1.44%.
For `O=C(c1ccc2c(=O)n(C3CCCC3)c(=S)[nH]c2c1)N1CCCCCC1`, the inhibition was 91.7%.
With `C=C(C)COc1ccc(-c2nc(N)ncc2-c2ccc(OC)cc2)c(O)c1`, the inhibition came out at 60.5%.
The result for `CC1=C(C#N)C(NC(=O)c2ccc(C)cc2)(C(F)(F)F)C(=O)N1` (centres undefined) reads -7.02%.
The result for `CC1=NN(C(N)=S)C(=O)C1N=Nc1c(C)cc(C)cc1C` (centres undefined) reads 42.4%.
For `CCOCCCNC(=O)NC12CC3CC(CC(C3)C1)C2` the value was 15.4%; for `CC/C(=N\NC(=S)Nc1cc(C)ccc1C)c1ccc(OC(F)F)cc1`, 55.1%.
For `Cc1cc(C)nc(/N=c2/ssnc2Cl)c1`, the inhibition was determined as 56.4%.
On to `COCCCNC(=S)N1CCCN(c2nc3c(C)c(C)ccc3cc2C#N)CC1`, for which the inhibition was 27.2%.
Regarding `Cc1cc(CN2CCOCC2)c(O)c(C2(C)CCCCC2)c1`, the inhibition stood at 70.8%.
For `COc1ccccc1N1CCN(c2nc(C)nc3c2oc2ccccc23)CC1` the value was 30.4%; for `Cc1cccc(-c2nnc(SCc3ccccc3)o2)c1`, -10.2%; for `COc1cc(/C=N/n2cnnc2)ccc1OCc1ccccc1`, 2.37%.
For `CN(CC(=O)Nc1ccccc1-c1ccccc1)Cc1ccccc1Cl` the value was 27.5%; for `Cn1nnc(NC(=S)NC(=O)c2ccc(-c3ccc(Br)cc3)o2)n1`, 48.5%.
For `CN1N=C(c2ccc(Cl)cc2)CC(c2ccc(Cl)cc2)C1=O` (centres undefined), the inhibition amounted to 51.1%.
The result for `Cc1cc(OCCCCn2ccnc2)cc(C)c1Cl` reads 68%; that for `COc1ccc(OC)c(S(=O)(=O)Nc2ccc(Oc3ccccc3)cc2)c1`, 2.76%.
For `CCC(C)n1c(=S)[nH]c2c(sc3ccc([N+](=O)[O-])cc32)c1=O` (centres undefined) the value was 64.2%.
For `CCOc1cccc(C(=O)Nc2ccc3oc(Cc4ccc(Cl)cc4)nc3c2)c1` the value was 36.2%.
Take `CCCOc1ccc(Cc2c(Cl)nc(SC)nc2N(C)C)cc1`: the inhibition was -18%.
The result for `CN1/C(=C\C(=O)Nc2ccc(Br)cc2)C(C)(C)c2ccccc21` reads 16.3%.
For `CC1CCCN(c2nc(-c3cccnc3)nc3scc(-c4ccccc4)c23)C1` (centres undefined), the inhibition was -9.7%.
With `Cc1cccc(-c2cc3nc4c(c(N5CCOCC5)n3n2)CCCC4)c1`, the inhibition amounted to 64.7%.
As to `CC(C)(C)c1ccc(C(=O)CC(=O)c2cc(Cl)ccc2O)cc1`, the inhibition worked out at 55.7%.
In the case of `CCOC(=O)c1[nH]c2ccc(OC)cc2c1NC(=O)C(C)N1CCC2(CC1)OCCO2` (centres undefined), the inhibition was found to be 16%.
`Cc1ccn2c(NC3CCCC3)c(-c3ccccn3)nc2c1`: the inhibition stood at 66.1%.
For the compound `Nc1nc(-c2ccc3c(c2)CCCC3)cs1`, the inhibition was found to be 80.9%.
In the case of `Cc1cc(C)c(NC2=NCC(=O)N2C2CCCCC2)c(C)c1`, the inhibition is 58%.
For `CC1=C(C(=O)OCc2ccccc2)C(/C=C/c2ccccc2)NC(=S)N1` (centres undefined) the value was 22.7%.
`COC(=O)CSc1nc(N)c2c3c(sc2n1)C(c1ccccc1)SC(c1ccccc1)C3` (centres undefined): the inhibition was 44.1%.
The result for `N#C[C@H]1[C@H](c2ccccc2)[C@](C#N)(C(=O)c2ccccc2)[C@@H]2C=Cc3ccccc3N21` reads -2.38%.
On to `O=C1c2ccccc2C(=O)N1CCCCN(C(=O)c1cc([N+](=O)[O-])ccc1Cl)c1ccc(Cl)cc1`, for which the inhibition amounted to 31.6%.
The result for `Clc1ccc(C2=Nn3c(nnc3-c3cc(-c4ccccc4)n[nH]3)SC2)cc1` reads 10.8%; that for `CC(C)NC(=S)NC(=O)c1ccc(-c2ccccc2)cc1`, 23.5%; that for `O=C(Nc1nnc(C2CC2)o1)c1ccc(S(=O)(=O)N2CCc3ccccc3C2)cc1`, 42.4%.
For `Cc1cnn(C(=S)NCc2ccc(Cl)cc2)c1` the value was 34.5%; for `COCC(C)NC(=O)c1cc(-c2cccc(OC)c2)on1` (centres undefined), 30.9%; for `CC(=O)Nc1ncc(Cc2cc(Cl)ccc2Cl)s1`, 58.5%.
As for `COC(=O)C1=C(Nc2ccc(C)cc2)C=C(C)C(C(=O)OC)C1c1ccc(OC)cc1` (centres undefined), the inhibition is 22.1%.
For `O=C(NCc1ccccc1)c1ccc(-c2ccccc2C(F)(F)F)o1` the value was -7.13%; for `CCOC(=O)C(=NC(C)CC)NNc1ccc(Br)cc1` (centres undefined), 66.2%.
The result for `Cc1[nH]c2ccccc2c1C(=O)COC(=O)c1c(-c2ccccc2Cl)noc1C` reads 70%; that for `OC1(c2cccc(C(F)(F)F)c2)CCN(c2ncnc3c2[nH]c2ccccc23)CC1`, 20.7%.
Regarding `Cc1ccc(-c2csc(NC(=O)CSc3nc4ccccc4c(=O)n3CCCN(C)C)n2)cc1`, the inhibition worked out at 80.5%.
Turning to `Cc1ccc(CNC(=O)CCNC(=O)c2ccco2)cc1`, the inhibition came out at 4.93%.
As to `COc1ccccc1C(=O)Nc1nnc(-c2ccc3c(c2)CCCC3)o1`, the inhibition stood at 33.7%.
